Where “and” joins values, the source holds several entries; their conditions need not be identical. Equal entries are not always repeated. The whole screen tested about 420,000 compounds, of which about 64,000 (15%) were called active. This list was built around the results that the source calls inconclusive (neither active nor inactive); the mix of calls is not that of the screen. Calls follow the shape of the dose curve; as a rule, active = well fitted inhibition curve with a large enough effect; inconclusive = small, poorly fitted or top-dose-only effect; inactive = flat fitted curve, though single readings scatter. Potencies of inconclusive entries are left out as doubtful fits.
Experiment: qHTS for Inhibitors of human tyrosyl-DNA phosphodiesterase 1 (TDP1): qHTS in cells in absence of CPT; also: nearly all actives have a fitted effect of over 55% in size
Details: DT40 Tdp1-/- hTDP1 cells, no CPT, ATP luminescence, 48 h; activity change, negative = growth inhibition: at 46.2 µM (top of the series)
Method in brief: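 Luminescent ATP content (CellTiter-Glo) served as the growth readout. Knockout chicken DT40 cells expressing human TDP1 were exposed to compounds without camptothecin for a minimum 48 hr at 37 °C.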
% is scaled to controls: 0 for no effect and ±100 for the full control effect; potency is read from the fitted curve at half-maximal effect; tags tell the direction and shape of the fitted curve.

SMILES	Potency	activity change, negative = growth inhibition
O=C(CN1CCN(c2ccccc2F)CC1)c1ccc2cc[nH]c2c1	inconclusive [inhibitor, single point]	–
COc1ccc(OCCOC(=O)c2ccc(F)c(S(=O)(=O)N3CCOCC3)c2)cc1	inactive	–
Cc1cc(C)cc(CSc2ccc(S(=O)(=O)N3CCCC3)cn2)c1	inconclusive [inhibitor, single point]	–
CN(CCOc1ccccc1)C(=O)c1cc([N+](=O)[O-])cc([N+](=O)[O-])c1	–	inconclusive: -33.3% [inhibitor]
Cc1ccc(C(C)(C)C)cc1S(=O)(=O)Nc1cccc(S(=O)(=O)NC2=NCCC2)c1	inconclusive [inhibitor, single point]	–
CCc1cccc(C)c1NC(=S)N(CCN(C)C)C(C)c1cccnc1 (stereo unspecified)	inactive	–
COc1ccc(/C=N/NC(=O)c2ccccc2Cl)cc1CSc1nc2ccccc2s1	active: 4.61 µM	–
COc1cccc(CNS(=O)(=O)c2ccc3c(c2)CC(C)N3C(=O)C2CCC2)c1 (stereo unspecified)	active: 16.4 µM and active: 7.31 µM	–
COc1ccc(CC(=O)Nc2cccc(S(=O)(=O)N3CCCCC3)c2)cc1	inconclusive [inhibitor, single point]	–
O=C1c2cccc3c2C2(O)c4c1cccc4C(=O)c1cccc(c12)C3=O	inconclusive [inhibitor, full curve]	–
O=C(c1cc2nc(-c3cccs3)cc(C(F)(F)F)n2n1)N1CCCc2ccccc21	inconclusive [inhibitor, single point]	–
O=C(Cn1c(=O)n(-c2ccc(Cl)cc2)c(=O)c2c3c(sc21)CCCCC3)Nc1cccc(Cl)c1	inconclusive [inhibitor, single point]	–
C/C(=N\NC(=O)c1ccccc1)c1cc2cc([N+](=O)[O-])ccc2oc1=O	inconclusive [inhibitor, single point]	–
O=C(NCc1cccc(Cl)c1)c1cc2c(s1)-c1ccccc1SC2	inactive	–
C/C=C/c1ccccc1OCc1ccc(C(=O)O)o1	inactive	–
COc1ccccc1N1CCN(C(=O)c2ccc(CN3CCOCC3)cc2)CC1	inconclusive [inhibitor, single point]	–
N#Cc1c(-c2ccccc2)c(C#N)c2nc3ccccc3n2c1N	inconclusive [inhibitor, partial curve, poor fit]	–
CN1C(=O)/C(=C/c2ccccc2OCc2cccc(F)c2)N(C)C1=S	inconclusive [inhibitor, single point]	–
C[C@@H]1NS(=O)(=O)[C@H]2C[C@@H]3C=C[C@]2(O3)[C@H]1OC(=O)Nc1ccc(C(F)(F)F)cc1[N+](=O)[O-]	inconclusive [inhibitor, single point]	inconclusive: -34.6% [inhibitor]
CCOC(=O)C1CCN(c2c(NCCCN(CC)c3ccccc3)c(=O)c2=O)CC1	inactive	–
CC(C)Cc1ccc(-c2cc3nc(NCc4cccc(Cl)c4)ccn3n2)cc1	active: 18.4 µM	–
Cc1ccccc1C(=O)Nc1nnc(CC(=O)N/N=C/c2ccncc2)s1	inactive	–
C/C(=C\C(=O)c1cccnc1)Nc1ccc(C)c(C)c1	inactive	–
Cc1ccc(C(=O)NNC(=O)c2cccnc2SCc2cccc([N+](=O)[O-])c2)cc1	inconclusive [inhibitor, single point]	–

SMILES	Potency	activity change, negative = growth inhibition
O=C(CNc1cccc(Br)c1)Nc1ccc(S(=O)(=O)N2CCCCC2)cc1	inconclusive [inhibitor, single point]	–
O=C1CC(c2ccccc2)Oc2ccccc21 (stereo unspecified)	inconclusive [inhibitor, full curve]	–
COc1ccc(CNC(=O)CCc2ccc(S(=O)(=O)N3CCCCCC3)cc2)cc1	inconclusive [inhibitor, single point]	–
O=Cc1ccc(/C=C2\C=Cc3ccccc32)cc1	active: 6.31 µM	–
CCOC(=O)c1ccc(N2C(=O)CC(SCC(N)C(=O)OCC)C2=O)cc1 (stereo unspecified)	inactive	–
CN(C)S(=O)(=O)NC(=O)C1=C(N2CCCC2)COC1=O	inactive	–
CCOC(=O)N1CCN(C(=O)Cc2cccc3ccccc23)CC1	inconclusive [inhibitor, single point]	–
COc1ccc(C(C)(C)C)cc1NC(=O)CCN1C(=O)C2CCCCC2C1=O (stereo unspecified)	inconclusive [inhibitor, single point]	–
Cc1ccc(C(=O)NC2CC(C)(C)NC(C)(C)C2)cc1	inactive	–
CCN(CC(=O)Nc1ccc(NC(C)=O)cc1)C(=O)c1ccc(COc2ccc(C(C)(C)C)cc2)cc1	active: 23.1 µM	–
Cc1cc(C)c2nc(N3CCCC(C(=O)NCc4ccccc4F)C3)sc2c1 (stereo unspecified)	inconclusive [inhibitor, single point]	–
CCOC(=O)c1c(C)c(C(=O)NCc2ccccc2OC)c(C)n1C	active: 12.6 µM	–
CCCc1nc2ccc(Br)cn2c1Cc1cccc(Cl)c1	active: 4.61 µM	–
O=C1c2cccc3cccc(c23)C(=O)N1CCO	inactive	–
COc1ccc(N2CCN(C(=O)c3ccc4c(c3)N(Cc3cccc(Cl)c3)C(=O)c3ccccc3S4(=O)=O)CC2)cc1	inactive	–
CCCCOc1cccc(C(=O)N(Cc2cccs2)C2CCS(=O)(=O)C2)c1 (stereo unspecified)	inconclusive [inhibitor, single point]	–
Cc1ccc2c(c1)C(c1ccc([N+](=O)[O-])cc1)=NNC(c1ccc(Br)cc1)=N2	inconclusive [inhibitor, partial curve]	–
COc1ccc(C)cc1NC(=O)C(NCC(O)c1ccccc1)c1ccccc1 (stereo unspecified)	inconclusive [inhibitor, single point]	–
COc1ccc(NC(=O)COc2cc(O)c3c(c2)OC(C)(C)CC3=O)cc1	inconclusive [inhibitor, partial curve, poor fit]	–
CCOc1ccc2nc(SCC3CC3(Cl)Cl)[nH]c2c1 (stereo unspecified)	active: 18.4 µM	–
O=C(O)Cn1c(=O)c2c3c(sc2n(Cc2ccccc2F)c1=O)CCCC3	inactive	–
C=C(C)c1cccc(C(C)(C)NC(=O)N2CCN(c3ccc(OC)cc3)CC2)c1	inconclusive [inhibitor, single point]	–
CC(NC(=O)CCl)c1ccccc1Br (stereo unspecified)	active: 14.6 µM	–
COc1ccc(NC(=O)CCN2CCN(S(=O)(=O)c3ccc(Br)cc3)CC2)cc1	inconclusive [inhibitor, single point]	–

SMILES	Potency	activity change, negative = growth inhibition
CN(C)c1cccc(C(=O)N(C)C2CCCN(Cc3ccccc3F)C2)c1 (stereo unspecified)	inconclusive [inhibitor, single point]	–
CCOc1ccccc1N(C)C(=O)c1cc2c(s1)-c1ccccc1OC2	active: 16.4 µM	–
O=C(NC(=S)N(Cc1ccccc1)Cc1ccccc1)c1ccccc1F	inconclusive [inhibitor, single point]	–
CCOC(=O)c1sc(N(Cc2ccccc2)C(=O)CN2C(=O)CN(C)C2=O)nc1C	inconclusive [inhibitor, single point]	–
CC(C)C(=O)NC(=S)Nc1ccccc1N1CCN(C(=O)c2ccc(Cl)cc2)CC1	active: 16.4 µM	–
CC(C)=CC1C(C(=O)Nc2ccc(S(=O)(=O)N3CCOCC3)cc2)C1(C)C (stereo unspecified)	inconclusive [inhibitor, single point]	–
CC(C)C[C@H]1CN([C@@H](Cc2ccc(O)cc2)CN2CCC[C@@H]2CN2C(=S)NC[C@@H]2Cc2ccccc2)C(=S)N1CC1CCCCCC1	active: 20.6 µM	–
CCCc1nnc(NC(=O)CCC(=O)N2CCN(S(=O)(=O)c3ccc(C)cc3)CC2)s1	inactive	–
CC(C)OCCCNC(=O)Cc1ccc(NC(=O)N2CCCCc3ccccc32)cc1	inconclusive [inhibitor, single point]	–
CCc1ccccc1NC(=O)Cn1c(=O)n(-c2cccc(C)c2)c(=O)c2c1c1cc(OC)ccc1n2C	active: 2.06 µM	–
Cc1cc(C)n(-c2nc3c(c(=O)[nH]c(=O)n3C)n2CC(O)COc2ccc(Cl)cc2Cl)n1 (stereo unspecified)	active: 5.8 µM	–
N=c1oc2ccc([N+](=O)[O-])cc2cc1C(=O)NCc1ccccc1	inconclusive [inhibitor, single point]	–
CN(C)S(=O)(=O)c1ccc(NC(=O)N2CCN(c3cccc(C(F)(F)F)c3)CC2)cc1	active: 2.59 µM	–
O=S(=O)(Nc1ccc(C(O)(C(F)(F)F)C(F)(F)F)cc1)c1cccc2ccccc12	active: 20.6 µM	–
N#CC[C@H](Cc1ccccc1)N1CCN(CCc2ccccc2)CCC1=O	inconclusive [inhibitor, single point]	–
O=C(NCC1CCCO1)C1CCCN(S(=O)(=O)c2cc(Cl)ccc2Cl)C1 (stereo unspecified)	inconclusive [inhibitor, single point]	–
Cc1cc(NC(C)c2ccccc2)n2ncc(-c3ccccc3)c2n1 (stereo unspecified)	inconclusive [inhibitor, single point]	–
CCC(CC)c1nnc(NC(=O)c2cc([N+](=O)[O-])ccc2N2CCOCC2)s1	active: 18.4 µM	–
COCCCn1[nH]c2c3c(ccc2c1=O)C(=O)c1ccccc1C3=O	active: 16.4 µM	–
O=C(CCl)NC(Cc1c[nH]c2ccc(OCc3ccccc3)cc12)C(=O)O (stereo unspecified)	inactive	–
Cc1n[nH]c(=O)n1-c1ccc(C(C)(C)C)cc1	inconclusive [inhibitor, single point]	–
O=C1NC(=O)C2(N1)C(=O)c1cccc3cccc2c13 (stereo unspecified)	–	inconclusive: -30% [inhibitor]

Reference: PubChem BioAssay AID686978 (National Center for Advancing Translational Sciences (NCATS), 2013)
